Data from PubChem BioAssay AID1346428 (National Center for Advancing Translational Sciences (NCATS), 2018).
About 1,200 (2.5%) of roughly 48,000 compounds were called active. Roughly 2% stayed inconclusive and do not appear here.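 The calls were made as follows: active = activation of at least 60% and not above a set upper limit (about 1 call in 100 departs from these limits); inconclusive = activation of 40% to 60%, or above that upper limit; inactive = activation under 40%.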 This is one part of the list.

Biological target: Probable G-protein coupled receptor 32 (Homo sapiens) (UniProt O75388)
Chain of UniProt O75388 (O75388 whole entry, looked up): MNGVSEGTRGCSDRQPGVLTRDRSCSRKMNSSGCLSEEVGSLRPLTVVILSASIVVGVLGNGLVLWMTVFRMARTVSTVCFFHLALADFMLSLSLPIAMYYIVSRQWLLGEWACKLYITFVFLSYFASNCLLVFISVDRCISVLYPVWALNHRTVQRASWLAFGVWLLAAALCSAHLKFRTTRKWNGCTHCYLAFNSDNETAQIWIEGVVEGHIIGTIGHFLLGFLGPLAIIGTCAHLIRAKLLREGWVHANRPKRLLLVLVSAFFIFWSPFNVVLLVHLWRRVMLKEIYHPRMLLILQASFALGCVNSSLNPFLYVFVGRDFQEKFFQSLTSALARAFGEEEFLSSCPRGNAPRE
Assay: qHTS for Agonists of Human Resolvin D1 Receptor DRV1; also: 0% is about no effect
Details: CHO-K1 GPR32 beta-arrestin PathHunter luminescence, 90 min; at 76.9 µM; active compounds read high; zero percent set by DMSO-only wells
Method in brief: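 Cells are plated overnight, treated with compounds in DMSO for 90 minutes at 37 °C, and developed with PathHunter detection reagent for 1 hour before luminescence is read; signal reflects beta-arrestin binding to GPR32 in engineered CHO-K1 cells.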

Structure (SMILES) | activation
CCN(C(=O)C(NS(=O)(=O)c1cccc2nsnc12)c1ccccc1)c1ccccc1 (configuration not stated) | inactive: -24.3%
Cc1ccc(NC(=O)[C@H](CSCc2ccccc2)N2Cc3ccccc3C2=O)cc1 | inactive: -3.04%
COc1ccc(OC)c(CNC(=O)CCS(=O)(=O)c2ccc3c(c2)oc(=O)n3C)c1 | inactive: 2.88%
Cc1cc(Nc2ccc(C)c(Cl)c2)n2nc(-c3ccccc3)nc2n1 | inactive: 2.24%
Cc1ccc(C(=O)N2c3nc(-c4ccco4)nn3C3(CCCCC3)[C@@H]3CCCC[C@@H]32)cc1 | inactive: -29.9%
Cc1cc(C)c(NC(=O)CN2C(=O)c3cccnc3Oc3ccc(Cl)cc32)c(C)c1 | inactive: -16%
CC1CCN(S(=O)(=O)c2cccc(C(=O)NC3CCS(=O)(=O)C3)c2)CC1 (configuration not stated) | inactive: -12.4%
Cc1csc2nc(-c3cccc(NC(=O)c4ccc(S(N)(=O)=O)cc4)c3)cn12 | inactive: 27.3%
Cn1c(=O)c2c(-c3ccccc3)n3c(c2n(C)c1=O)C(c1cc(Cl)ccc1O)Nc1ccccc1-3 (configuration not stated) | inactive: 9.19%
O=C(CCNS(=O)(=O)c1cccc2nsnc12)Nc1ccc(F)cc1 | inactive: -13.9%
Cc1ccc2cccc(NC(=O)c3ccc(-c4ccc(Cl)cc4Cl)o3)c2n1 | inactive: 7.88%
COc1ccc(OC)c(CNC(=O)c2cc(=O)[nH]c3ccc(S(=O)(=O)N4CCCCC4C)cc23)c1 (configuration not stated) | inactive: -16%
COc1ccccc1/C=C(\C#N)c1nc(-c2cc3ccccc3oc2=O)cs1 | inactive: 8.31%
CCC(=O)Nc1ccc(S(=O)(=O)NCc2cccn2Cc2cccc(C)c2)cc1 | inactive: 42%
CCOc1ccc(-c2cc(C)n3nc(C(=O)Nc4cc(Cl)ccc4O)cc3n2)cc1 | inactive: 13.9%
COc1cccc(NC(=O)Cn2c(=O)n(Cc3nc(-c4ccccc4)no3)c(=O)c3ccccc32)c1 | inactive: -8.72%
O=C(NCCC1=CCCCC1)c1ccc2c(c1)ncn2-c1cccc(Cl)c1 | inactive: -10.1%
CCc1ccccc1NC(=O)CSc1ncc2c(n1)-c1ccccc1N(C)S2(=O)=O | inactive: 3.74%
CCOC(=O)N1CCC(NC(=O)c2cnn(-c3ccccc3)c2C2CCN(C(=O)OC(C)(C)C)CC2)CC1 | inactive: 3.52%
COc1ccc(S(=O)(=O)NCCc2sc(-c3ccccc3)nc2C)cc1OC | inactive: 21.4%
Cc1ccc(/C=C/c2onc(C)c2S(=O)(=O)N2CCC(C(=O)NCc3ccco3)CC2)cc1 | active: 88.3%
CCN(CC)c1ccc(NC(=O)CN2C(=O)c3cccnc3Oc3ccccc32)c(C)c1 | inactive: -14.9%
